Results are given in words; binding and its absence hold for the method and conditions named. For part of these data: In cells and extracts the contact can be indirect. Some results given as binding are weak or reduced against the parent protein; the word gives no strength. Where a sequence is shown, tags or fusion partners need not be part of it. Each block holds one binder with its values, some of them ahead of it.
Key:
[1] = target: T1, Csm1-MBP, full length (1-190) (S. cerevisiae) (UniProt P25651); assay: pull-down; Csm1-MBP (or variants) or MBP on amylose resin incubated with yeast extract containing Dsn1-pk6 or Dsn1-Δ110-pk6, 4°C, 30 minutes; washed with lysis buffer A containing 1% NP40; Western with anti-PK; only the target purified
T1 sequence: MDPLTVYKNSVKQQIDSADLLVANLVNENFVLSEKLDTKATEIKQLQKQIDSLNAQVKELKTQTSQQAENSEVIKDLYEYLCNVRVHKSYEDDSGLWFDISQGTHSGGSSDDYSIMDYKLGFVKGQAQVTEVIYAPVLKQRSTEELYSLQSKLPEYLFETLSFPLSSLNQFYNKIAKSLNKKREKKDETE

[2] = target: T2, Dsn1 (1-352) fused to Gal4-DBD (S. cerevisiae) (UniProt P40568); assay: two-hybrid; Dsn1 and its variants fused to Gal4-DBD (pGBKT7), Csm1 fused to Gal4-AD (pGADT7) in AH109; growth on SD-LEU-TRP-ADE-HIS plates at 30°C for 2-3 days
T2 sequence: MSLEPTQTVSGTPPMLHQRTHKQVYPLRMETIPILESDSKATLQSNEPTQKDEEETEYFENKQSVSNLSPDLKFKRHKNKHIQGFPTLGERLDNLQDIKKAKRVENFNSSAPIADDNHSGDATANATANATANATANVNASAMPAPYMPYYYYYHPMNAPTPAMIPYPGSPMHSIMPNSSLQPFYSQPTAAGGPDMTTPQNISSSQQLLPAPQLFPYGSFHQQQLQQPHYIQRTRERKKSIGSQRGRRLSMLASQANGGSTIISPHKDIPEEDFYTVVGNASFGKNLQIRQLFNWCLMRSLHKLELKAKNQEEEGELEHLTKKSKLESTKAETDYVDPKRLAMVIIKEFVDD

[3] = target: T3, Dsn1 (1-130) fused to Gal4-DBD (S. cerevisiae) (UniProt P40568); assay: as above
T3 sequence: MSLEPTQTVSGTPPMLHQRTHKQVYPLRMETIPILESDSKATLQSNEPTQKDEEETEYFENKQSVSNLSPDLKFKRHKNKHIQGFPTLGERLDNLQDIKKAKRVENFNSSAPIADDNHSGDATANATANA

[4] = target: T4, Dsn1 (1-220) fused to Gal4-DBD (S. cerevisiae) (UniProt P40568); assay: as above
T4 sequence: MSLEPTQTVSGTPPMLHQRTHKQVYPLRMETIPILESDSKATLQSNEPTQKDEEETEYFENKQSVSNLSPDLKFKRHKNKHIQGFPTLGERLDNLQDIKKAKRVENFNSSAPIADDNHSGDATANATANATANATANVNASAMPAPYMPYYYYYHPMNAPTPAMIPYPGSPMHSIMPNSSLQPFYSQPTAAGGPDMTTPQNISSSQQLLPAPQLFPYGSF

[5] = target: T5, Dsn1 (131-220) fused to Gal4-DBD (S. cerevisiae) (UniProt P40568); assay: as above
T5 sequence: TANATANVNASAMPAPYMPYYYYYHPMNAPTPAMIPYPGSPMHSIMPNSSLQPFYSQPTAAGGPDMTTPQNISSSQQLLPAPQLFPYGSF

[6] = target: T6, Dsn1 (1-576) fused to Gal4-DBD (S. cerevisiae) (UniProt P40568); assay: as above
T6 sequence: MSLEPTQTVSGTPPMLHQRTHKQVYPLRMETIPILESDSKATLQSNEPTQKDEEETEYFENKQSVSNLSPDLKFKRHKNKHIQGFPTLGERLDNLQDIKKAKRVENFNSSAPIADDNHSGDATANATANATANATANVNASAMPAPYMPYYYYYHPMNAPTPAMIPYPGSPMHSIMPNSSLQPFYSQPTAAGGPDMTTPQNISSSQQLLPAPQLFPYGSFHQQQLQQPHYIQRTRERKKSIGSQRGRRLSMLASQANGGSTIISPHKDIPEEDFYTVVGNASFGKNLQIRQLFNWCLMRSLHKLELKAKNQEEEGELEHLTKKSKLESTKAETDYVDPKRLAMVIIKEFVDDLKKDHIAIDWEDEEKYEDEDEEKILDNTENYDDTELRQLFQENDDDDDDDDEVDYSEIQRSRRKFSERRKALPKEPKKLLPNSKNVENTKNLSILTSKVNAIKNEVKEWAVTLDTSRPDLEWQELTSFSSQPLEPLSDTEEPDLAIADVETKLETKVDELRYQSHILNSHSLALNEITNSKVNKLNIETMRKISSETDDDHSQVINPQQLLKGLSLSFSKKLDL

[7] = target: T7, Dsn1 (353-576) fused to Gal4-DBD (S. cerevisiae) (UniProt P40568); assay: as above
T7 sequence: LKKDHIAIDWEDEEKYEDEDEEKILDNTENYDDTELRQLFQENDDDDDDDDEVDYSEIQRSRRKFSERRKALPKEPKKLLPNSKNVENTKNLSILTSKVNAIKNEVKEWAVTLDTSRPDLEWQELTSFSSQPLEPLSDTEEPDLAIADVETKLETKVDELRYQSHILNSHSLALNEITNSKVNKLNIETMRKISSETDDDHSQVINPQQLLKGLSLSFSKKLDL

[8] = target: T8, Csm1 (141-190)-MBP (S. cerevisiae) (UniProt P25651); assay: pull-down; Csm1-MBP (or variants) or MBP on amylose resin incubated with yeast extract containing Dsn1-pk6 or Dsn1-Δ110-pk6, 4°C, 30 minutes; washed with lysis buffer A containing 1% NP40; Western with anti-PK; only the target purified
T8 sequence: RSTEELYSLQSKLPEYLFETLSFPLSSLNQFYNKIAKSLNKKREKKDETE

[9] = target: T9, Csm1 (1-87)-MBP (S. cerevisiae) (UniProt P25651); assay: as above
T9 sequence: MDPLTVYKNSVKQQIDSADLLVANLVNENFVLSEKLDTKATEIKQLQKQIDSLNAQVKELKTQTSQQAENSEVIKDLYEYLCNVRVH

[10] = target: T10, Csm1 (1-140)-MBP (S. cerevisiae) (UniProt P25651); assay: as above
T10 sequence: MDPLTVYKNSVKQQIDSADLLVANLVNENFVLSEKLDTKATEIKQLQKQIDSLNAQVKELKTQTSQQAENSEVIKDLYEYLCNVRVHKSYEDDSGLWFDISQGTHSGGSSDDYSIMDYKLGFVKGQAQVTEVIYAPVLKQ

[11] = target: T11, Csm1 (88-190)-MBP (S. cerevisiae) (UniProt P25651); assay: as above
T11 sequence: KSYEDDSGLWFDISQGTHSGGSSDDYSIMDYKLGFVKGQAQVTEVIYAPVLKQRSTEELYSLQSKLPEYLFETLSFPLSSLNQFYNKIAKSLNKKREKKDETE

binding [1]: no binding
B1: Dsn1-Δ110-pk6 (domain or fragment, UniProt P40568 111-576)
chain: APIADDNHSGDATANATANATANATANVNASAMPAPYMPYYYYYHPMNAPTPAMIPYPGSPMHSIMPNSSLQPFYSQPTAAGGPDMTTPQNISSSQQLLPAPQLFPYGSFHQQQLQQPHYIQRTRERKKSIGSQRGRRLSMLASQANGGSTIISPHKDIPEEDFYTVVGNASFGKNLQIRQLFNWCLMRSLHKLELKAKNQEEEGELEHLTKKSKLESTKAETDYVDPKRLAMVIIKEFVDDLKKDHIAIDWEDEEKYEDEDEEKILDNTENYDDTELRQLFQENDDDDDDDDEVDYSEIQRSRRKFSERRKALPKEPKKLLPNSKNVENTKNLSILTSKVNAIKNEVKEWAVTLDTSRPDLEWQELTSFSSQPLEPLSDTEEPDLAIADVETKLETKVDELRYQSHILNSHSLALNEITNSKVNKLNIETMRKISSETDDDHSQVINPQQLLKGLSLSFSKKLDL

binding [2]: binds
binding [3]: no binding
binding [4]: binds
binding [5]: no binding
binding [6]: binds
binding [7]: no binding
B2: Csm1 fused to Gal4-AD (protein, UniProt P25651 1-190)
chain: T1 sequence

binding [1]: binds
binding [8]: binds
binding [9]: no binding
binding [10]: binds
binding [11]: binds
B3: Dsn1-pk6, full length (protein, UniProt P40568 1-576)
chain: T6 sequence
